The test addresses histone H4 (Xenopus laevis), in the nucleosome (Xenopus laevis, UniProt P62799). Description: cryo-EM structure.

B1: human SNF2h (full-length form of the human ISWI remodeler) (enzyme)
chain: MSSAAEPPPPPPPESAPSKPAASIASGGSNSSNKGGPEGVAAQAVASAASAGPADAEMEEIFDDASPGKQKEIQEPDPTYEEKMQTDRANRFEYLLKQTELFAHFIQPAAQKTPTSPLKMKPGRPRIKKDEKQNLLSVGDYRHRRTEQEEDEELLTESSKATNVCTRFEDSPSYVKWGKLRDYQVRGLNWLISLYENGINGILADEMGLGKTLQTISLLGYMKHYRNIPGPHMVLVPKSTLHNWMSEFKRWVPTLRSVCLIGDKEQRAAFVRDVLLPGEWDVCVTSYEMLIKEKSVFKKFNWRYLVIDEAHRIKNEKSKLSEIVREFKTTNRLLLTGTPLQNNLHELWSLLNFLLPDVFNSADDFDSWFDTNNCLGDQKLVERLHMVLRPFLLRRIKADVEKSLPPKKEVKIYVGLSKMQREWYTRILMKDIDILNSAGKMDKMRLLNILMQLRKCCNHPYLFDGAEPGPPYTTDMHLVTNSGKMVVLDKLLPKLKEQGSRVLIFSQMTRVLDILEDYCMWRNYEYCRLDGQTPHDERQDSINAYNEPNSTKFVFMLSTRAGGLGINLATADVVILYDSDWNPQVDLQAMDRAHRIGQTKTVRVFRFITDNTVEERIVERAEMKLRLDSIVIQQGRLVDQNLNKIGKDEMLQMIRHGATHVFASKESEITDEDIDGILERGAKKTAEMNEKLSKMGESSLRNFTMDTESSVYNFEGEDYREKQKIAFTEWIEPPKRERKANYAVDAYFREALRVSEPKAPKAPRPPKQPNVQDFQFFPPRLFELLEKEILFYRKTIGYKVPRNPELPNAAQAQKEEQLKIDEAESLNDEELEEKEKLLTQGFTNWNKRDFNQFIKANEKWGRDDIENIAREVEGKTPEEVIEYSAVFWERCNELQDIEKIMAQIERGEARIQRRISIKKALDTKIGRYKAPFHQLRISYGTNKGKNYTEEEDRFLICMLHKLGFDKENVYDELRQCIRNSPQFRFDWFLKSRTAMELQRRCNTLITLIERENMELEEKEKAEKKKRGPKPSTQKRKMDGAPDGRGRKKKLKL
Regarding B1, the binding result was “binds”.

These data come from article doi:10.1101/550970 (bioRxiv, 2019).
